Assay results as given in PubChem BioAssay (NCI).
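A five-concentration, 48-hour dose response in 96-well plates underlies each endpoint, interpolated linearly between surrounding concentrations. Here, GI50 denotes the concentration required for 50% inhibition of growth. TGI: total growth inhibition.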

System: NCI-H322M lung
Assay: growth of human tumour cells (NCI), 48 h

| SMILES | GI50 | TGI |
| --- | --- | --- |
| C#C[C@]1(O)CC[C@H]2[C@@H]3CC=C4c5sc(-c6ccc([N+](=O)[O-])cc6)nc5CC[C@]4(C)[C@H]3CC[C@@]21C | 12.5 µM | 25.1 µM |
| CC(=O)Nc1ccc(-c2cn(-c3cccc(C(=O)Nc4cc(CN5CCOCC5)cc(C(F)(F)F)c4)c3)nn2)cn1 | 2 µM | 4.17 µM |
| C=C(C)[C@@H]1CC[C@]2(COP(=O)(OCC)OCC)CC[C@]3(C)[C@H](CC[C@@H]4[C@@](C)(CCCN)[C@H](C(=C)C)CC[C@]43C)[C@@H]12 | 10.3 µM | 21.9 µM |
